Results on 14 molecules are retold here after paper PMC3746198.

By UniProt entry, the sequences of proteins in these tests, tags left out. Where a name states a change or a piece, a line headed by the entry shows the natural chain unless it says otherwise. Chains listed by the source or under a name are the forms on record and can include a tag or linker.
UniProt P48432: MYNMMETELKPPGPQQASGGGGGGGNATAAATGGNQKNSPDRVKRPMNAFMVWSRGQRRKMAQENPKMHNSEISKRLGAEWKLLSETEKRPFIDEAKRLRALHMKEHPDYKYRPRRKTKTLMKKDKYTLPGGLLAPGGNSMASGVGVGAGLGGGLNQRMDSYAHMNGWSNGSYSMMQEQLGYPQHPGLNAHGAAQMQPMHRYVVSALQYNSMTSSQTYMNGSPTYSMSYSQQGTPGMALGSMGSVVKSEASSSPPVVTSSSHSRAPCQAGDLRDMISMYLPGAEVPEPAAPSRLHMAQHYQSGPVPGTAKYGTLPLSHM
(Flag)3-Sox2 Δ205–233 (P48432, form named): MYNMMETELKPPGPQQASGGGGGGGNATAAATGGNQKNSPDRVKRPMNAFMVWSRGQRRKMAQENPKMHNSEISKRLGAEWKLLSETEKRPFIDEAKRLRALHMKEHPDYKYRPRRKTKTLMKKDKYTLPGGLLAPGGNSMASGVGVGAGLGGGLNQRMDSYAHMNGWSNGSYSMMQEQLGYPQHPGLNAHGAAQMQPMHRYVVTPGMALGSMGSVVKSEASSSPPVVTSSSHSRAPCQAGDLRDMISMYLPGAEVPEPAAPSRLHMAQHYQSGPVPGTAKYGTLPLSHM
UniProt Q9R190: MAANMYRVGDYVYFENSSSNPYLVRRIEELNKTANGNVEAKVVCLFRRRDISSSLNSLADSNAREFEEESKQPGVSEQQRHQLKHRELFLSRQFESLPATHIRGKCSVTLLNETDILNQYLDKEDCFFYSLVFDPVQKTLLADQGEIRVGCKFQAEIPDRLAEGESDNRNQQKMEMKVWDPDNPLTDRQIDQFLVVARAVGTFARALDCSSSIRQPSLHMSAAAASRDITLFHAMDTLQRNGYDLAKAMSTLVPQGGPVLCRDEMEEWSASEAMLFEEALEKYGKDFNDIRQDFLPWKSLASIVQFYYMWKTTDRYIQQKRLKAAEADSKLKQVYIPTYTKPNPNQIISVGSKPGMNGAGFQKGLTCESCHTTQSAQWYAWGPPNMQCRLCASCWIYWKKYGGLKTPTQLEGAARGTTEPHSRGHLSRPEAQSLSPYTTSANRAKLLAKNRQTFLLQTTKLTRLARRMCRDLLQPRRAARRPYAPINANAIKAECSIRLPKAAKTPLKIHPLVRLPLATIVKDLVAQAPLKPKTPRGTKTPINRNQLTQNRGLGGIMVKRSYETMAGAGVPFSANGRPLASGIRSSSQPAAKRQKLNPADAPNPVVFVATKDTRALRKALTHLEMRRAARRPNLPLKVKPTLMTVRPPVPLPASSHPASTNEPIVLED
UniProt Q8BX22: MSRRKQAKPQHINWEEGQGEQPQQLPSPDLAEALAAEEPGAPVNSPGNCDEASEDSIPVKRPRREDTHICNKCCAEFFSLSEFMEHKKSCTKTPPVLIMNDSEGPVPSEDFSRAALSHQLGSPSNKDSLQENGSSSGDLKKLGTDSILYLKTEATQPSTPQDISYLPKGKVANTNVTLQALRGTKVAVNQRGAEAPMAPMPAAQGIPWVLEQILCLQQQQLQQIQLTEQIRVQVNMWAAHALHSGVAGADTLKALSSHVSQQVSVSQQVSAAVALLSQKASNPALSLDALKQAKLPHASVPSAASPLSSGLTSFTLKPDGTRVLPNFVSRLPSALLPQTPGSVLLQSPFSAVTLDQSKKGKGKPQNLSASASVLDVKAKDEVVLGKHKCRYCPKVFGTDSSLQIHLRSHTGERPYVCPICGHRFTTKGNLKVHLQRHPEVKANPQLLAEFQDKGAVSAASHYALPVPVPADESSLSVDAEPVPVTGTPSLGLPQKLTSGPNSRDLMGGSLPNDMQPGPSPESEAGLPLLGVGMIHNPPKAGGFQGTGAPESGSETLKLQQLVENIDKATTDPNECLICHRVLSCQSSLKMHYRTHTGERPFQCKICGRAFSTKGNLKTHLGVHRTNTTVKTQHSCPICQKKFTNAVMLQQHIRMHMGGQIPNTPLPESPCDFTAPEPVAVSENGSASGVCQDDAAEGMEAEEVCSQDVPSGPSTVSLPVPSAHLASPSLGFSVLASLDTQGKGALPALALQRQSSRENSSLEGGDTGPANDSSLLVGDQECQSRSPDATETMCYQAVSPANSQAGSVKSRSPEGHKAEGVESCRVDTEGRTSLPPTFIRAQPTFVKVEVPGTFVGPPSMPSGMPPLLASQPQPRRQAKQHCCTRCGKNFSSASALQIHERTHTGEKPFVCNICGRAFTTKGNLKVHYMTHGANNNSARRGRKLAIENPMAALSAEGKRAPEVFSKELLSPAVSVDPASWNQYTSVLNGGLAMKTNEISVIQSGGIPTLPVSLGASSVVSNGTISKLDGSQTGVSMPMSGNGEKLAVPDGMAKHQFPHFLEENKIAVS

The target in one assay is T1, (HA)3Nanog (UniProt Q80Z64).
T1 sequence: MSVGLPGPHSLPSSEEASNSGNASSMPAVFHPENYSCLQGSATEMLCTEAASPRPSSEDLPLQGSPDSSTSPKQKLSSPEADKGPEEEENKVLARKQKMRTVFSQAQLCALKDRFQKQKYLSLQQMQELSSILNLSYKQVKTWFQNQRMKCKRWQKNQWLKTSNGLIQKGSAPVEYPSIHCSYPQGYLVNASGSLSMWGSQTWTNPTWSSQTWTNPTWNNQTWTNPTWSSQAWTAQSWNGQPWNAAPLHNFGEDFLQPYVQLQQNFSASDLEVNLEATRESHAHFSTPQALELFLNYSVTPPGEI
The assay is described as follows: co-IP; E14/T cells co-transfected with (HA)3-Nanog or mutants and (Flag)3Sox2 or mutants; nuclear extract (treated with benzonase); HA antibody 4°C 3 h, Protein G; immunoblot with anti-FLAG.

In a further assay the target is T2, (FLAG)3Nanog (UniProt Q80Z64).
T2 sequence: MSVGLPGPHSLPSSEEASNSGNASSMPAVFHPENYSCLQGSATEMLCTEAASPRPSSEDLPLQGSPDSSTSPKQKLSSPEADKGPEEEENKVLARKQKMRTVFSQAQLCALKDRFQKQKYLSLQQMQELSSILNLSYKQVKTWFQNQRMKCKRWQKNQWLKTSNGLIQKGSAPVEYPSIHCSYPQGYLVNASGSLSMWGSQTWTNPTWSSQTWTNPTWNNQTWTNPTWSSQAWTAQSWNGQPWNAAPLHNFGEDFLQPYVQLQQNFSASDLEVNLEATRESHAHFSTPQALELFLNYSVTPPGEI
The assay is described as follows: co-IP; nuclear extract of E14Tg2a F-Nanog cells with Flag antibody and Protein G (mouse IgG control), or of RCNβH-B(t):F-Nanog cells with FLAG agarose (parental cells as control); 4°C, 3 h; washed in 20 mM Hepes pH 7.6, 100 mM KCl, 0.2% NP-40; immunoblot.

The target of assay [1] is T3, Nanog (endogenous) (mouse (endogenous in E14Tg2a ES cells)) (UniProt Q80Z64).
T3 sequence: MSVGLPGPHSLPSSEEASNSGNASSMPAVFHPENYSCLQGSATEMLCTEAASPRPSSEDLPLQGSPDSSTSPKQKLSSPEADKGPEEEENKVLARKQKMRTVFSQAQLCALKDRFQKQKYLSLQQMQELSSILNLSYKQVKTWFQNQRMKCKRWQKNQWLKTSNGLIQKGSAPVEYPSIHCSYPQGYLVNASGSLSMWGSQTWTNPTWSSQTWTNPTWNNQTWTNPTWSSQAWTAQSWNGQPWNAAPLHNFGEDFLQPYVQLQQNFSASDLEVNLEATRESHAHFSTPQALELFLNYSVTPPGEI
The assay is described as follows: co-IP; endogenous proteins, E14Tg2a nuclear extract; immunoprecipitation with anti-Sox2 or with anti-Nanog antibody, immunoblot for the other protein.

For assay [2], the target named is T4, (His)6-tagged Nanog (UniProt Q80Z64).
T4 sequence: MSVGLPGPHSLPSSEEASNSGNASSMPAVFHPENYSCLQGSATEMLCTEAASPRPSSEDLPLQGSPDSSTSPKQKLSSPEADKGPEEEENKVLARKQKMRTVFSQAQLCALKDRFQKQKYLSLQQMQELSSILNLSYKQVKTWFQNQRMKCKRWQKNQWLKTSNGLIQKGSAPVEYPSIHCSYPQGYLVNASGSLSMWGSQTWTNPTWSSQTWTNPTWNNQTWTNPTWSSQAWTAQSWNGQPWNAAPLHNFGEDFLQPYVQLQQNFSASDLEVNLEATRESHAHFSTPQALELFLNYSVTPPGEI
The assay is described as follows: co-purification on ion exchange; the Nanog/Sox2 eluate of the nickel resin (proteins co-expressed in E. coli) on a CM Sepharose FF column at pH 7.6, gradient 0–1 M NaCl; Coomassie gel of fractions.

Assay [3] has as its target T4, (His)6-tagged Nanog. The assay is described as follows: pull-down; (His)6-Nanog and unmodified Sox2 co-expressed in E. coli BL21(DE3) (pET Duet); lysate in 25 mM Hepes pH 7.6, 1 M NaCl, 5 mM imidazole on nickel resin, eluted with imidazole; Coomassie gel, immunoblot and N-terminal sequencing.
The target in assay [4] is Sox2 (endogenous) (mouse (endogenous in E14Tg2a ES cells)) (UniProt P48432). The assay is described as follows: co-IP; endogenous proteins, E14Tg2a nuclear extract; immunoprecipitation with anti-Sox2 or with anti-Nanog antibody, immunoblot for the other protein.

Results are given in words; binding and its absence hold for the method and conditions named. For some of these results: Binding seen in cells or lysates may run through a third protein. Some entries that bind do so weakly or less than the wild type. For some of these results: Sequences can lack the tags named with a protein.

In the case of “(Flag)3-Sox2 1-204 (from UniProt P48432 1-204) (domain or fragment)”, the binding result in the assay with (HA)3Nanog is “no binding”. As for “(Flag)3-Sox2 1-212 (from UniProt P48432 1-212) (domain or fragment)”, in the assay with (HA)3Nanog, the binding entry is on record as “no binding”. On the same count and under the same terms, with “(Flag)3-Sox2 1-218 (from UniProt P48432 1-218) (domain or fragment)” the entry was “binds”; with “(Flag)3-Sox2 1-226 (from UniProt P48432 1-226) (domain or fragment)”, “binds”.

On to “(Flag)3-Sox2 1-233 (from UniProt P48432 1-233) (domain or fragment)”, for which the binding result with (HA)3Nanog is recorded as “binds”.

As to “(Flag)3-Sox2 1-263 (from UniProt P48432 1-263) (domain or fragment)”, the binding entry with (HA)3Nanog was “binds”. Take “(Flag)3-Sox2 Δ205–233 (from UniProt P48432 1-319)”: the binding entry with (HA)3Nanog was “no binding”.

For “(Flag)3-Sox2 ΔN120 (from UniProt P48432 121-319) (domain or fragment)”, in the assay with (HA)3Nanog, the binding entry is given as “binds”. Same read-out and setting: in the case of (Flag)3Sox2 (from UniProt P48432 1-319) it was “binds”. With “NuRD subunit Mta2 (from UniProt Q9R190 1-668)”, the binding entry in the assay with (FLAG)3Nanog is listed as “binds”. Consider Sall4 (from UniProt Q8BX22 1-1067), for which, in the assay with (FLAG)3Nanog, the binding entry was “binds”. “Sox2 (endogenous) (from UniProt P48432 1-319)”: the binding result (in assay [1]; with (FLAG)3Nanog) was “binds” in each case. For the molecule “unmodified Sox2 (expressed in E. coli) (from UniProt P48432 1-319)”, the binding result in the assay with (His)6-tagged Nanog [2] and in the assay with (His)6-tagged Nanog [3] was “binds” in each case.

B1: Nanog (endogenous) (protein, UniProt Q80Z64 1-305)
chain: MSVGLPGPHSLPSSEEASNSGNASSMPAVFHPENYSCLQGSATEMLCTEAASPRPSSEDLPLQGSPDSSTSPKQKLSSPEADKGPEEEENKVLARKQKMRTVFSQAQLCALKDRFQKQKYLSLQQMQELSSILNLSYKQVKTWFQNQRMKCKRWQKNQWLKTSNGLIQKGSAPVEYPSIHCSYPQGYLVNASGSLSMWGSQTWTNPTWSSQTWTNPTWNNQTWTNPTWSSQAWTAQSWNGQPWNAAPLHNFGEDFLQPYVQLQQNFSASDLEVNLEATRESHAHFSTPQALELFLNYSVTPPGEI
B1: the binding result in assay [4] is listed as “binds”.
